PubChem BioAssay AID1508623 (National Center for Advancing Translational Sciences (NCATS), 2021)
Screen size: about 48,000 compounds; about 450 (0.94%) were called active. Inconclusive results (about 19%) are left out. The call rests on the fitted dose curve; in most records, active means well fitted inhibition curve with a large enough effect; inconclusive means small, poorly fitted or top-dose-only effect; inactive means no such curve, though single readings can be large or run the other way. Some of the results follow.

Assay: Primary qHTS for Identification of Small Molecule Inhibitors of Huntingtin Promoter Activity; further: nearly all actives have a fitted effect of over 50% in size
Details: HEK293 HTT promoter firefly luciferase reporter (activity 0% = vehicle and -100% = no light), 24 h; series mostly up to 57.5 µM; activity change, negative = inhibition: at the top concentration
Method in brief: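 Firefly luciferase readout (Dual-Glo, 10 min RT) after 24 h, 37 °C compound exposure (final up to 57.5 uM) of HEK293 reporter cells cultured 24 h beforehand; PTC124 at 50 uM final as control inhibitor; activity scaled vehicle 0%, zero RLU -100%.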

Activity change, negative = inhibition, inactive:
CCc1nnc2c(NCc3ccccc3)nc3ccccc3n12 -6.68%
CCOc1ccc(-c2cc(NC(=O)Nc3ccccc3Cl)c(C(=O)OC)s2)cc1 92.7%
Cc1ccc(-c2nnc(Nc3ccc(F)cc3)c3ccccc23)cc1S(=O)(=O)NC(C)C 53.3% [at 11.5 µM]
N#Cc1c(C(F)(F)F)cc(-c2cccs2)nc1SCC(=O)Nc1cccc(Br)c1 -21.2%
Cc1ccc(C(=O)N2CCN(c3ccccc3)CC2)cc1NC(=O)c1nsc2ccccc12 -3.28%
CC(C)c1ccc(NC(=O)C2CCCN(S(=O)(=O)c3ccc4[nH]c(=O)oc4c3)C2)cc1 (stereo not drawn) -20.7%
CCN(CC)S(=O)(=O)c1ccc2c(c1)c(=O)c(C(=O)N1CCN(c3ccc(OC)cc3)CC1)cn2C -1.15%
CCc1ccccc1NC(=O)c1nc2nc(C)cc(C(F)F)n2n1 -7.92%
CCCN(CCC)CCCNC(=O)Cn1ncn2c(cc3sc(CC)cc32)c1=O 3.3%
Cc1ccc(CNC(=O)CN2N=C(c3ccc(C)cc3)CCC2=O)cc1 -3.69%
Cn1c(-c2cccc(Br)c2)cnc1NCc1cccc(F)c1 -20.5%
COc1ccc2cc1Oc1ccc(cc1)C[C@H]1c3c(cc4c(c3Oc3cc5c(cc3OC)CCN(C)[C@@H]5C2)OCO4)CCN1C -16.4%
Cc1cccc(-c2nnc(SCC(=O)Nc3ccc(C)c(C)c3)o2)c1 2.66%
CCCS(=O)(=O)c1c(S(=O)(=O)CCC)c2cc(C(C)(C)C)ccn2c1C(=O)c1ccc(C)cc1 -13.7%
COc1ccc(Nc2nnc(-c3cc4cc(Cl)ccc4oc3=O)s2)cc1 5.18%
COc1cccc(CN2C(=O)c3ccccc3C2C(=O)NCCc2ccccc2)c1 (stereo not drawn) 13.6%
CCC(C)NC(=O)c1ccc(Cn2c(=O)c3cccn3c3cccnc32)cc1 (stereo not drawn) 0.421%
COc1cc(SC)ccc1C(=O)N1CCn2c3c(c4cc(C)ccc42)CCCC31 (stereo not drawn) -8.51%
Cc1ccc(C(=O)Nc2c(C)nc3ccccn3c2=O)cc1 58.2%
O=C(CCCCCn1c(=O)[nH]c2ccsc2c1=O)NCc1ccccc1 -8.79%
CCOc1ccc(CNC(=O)Cn2nc(N3CCN(c4ccccc4)CC3)ccc2=O)cc1 -14.7%
Oc1c(C(c2cccc(Br)c2)N2CCCC2)sc2nc(-c3ccco3)nn12 (stereo not drawn) 5.06%
Cc1cccc(N2C(=O)C(CC(=O)Nc3ccccc3)N(C3CCCCC3)C2=O)c1 (stereo not drawn) -27.3%
COc1cccc(C(=O)Nc2nc3nc(C)c(Cc4ccccc4)c(=O)n3[nH]2)c1 -0.533%
Cn1c(=O)c2[nH]c(Br)nc2n(C)c1=O 5.79%
CCOC(=O)c1c(C)[nH]c(C)c1S(=O)(=O)N(C)CC(=O)N1CCN(c2cccc(C)c2C)CC1 -39.8%
COc1ccccc1C(=O)Nc1ccccc1C(=O)OCc1cc(=O)n2c(C)csc2n1 -16.8%
CCOC(=O)c1c(C)oc2nc(C)nc(NCCCN3CCN(c4ccccc4OC)CC3)c12 -1.18%
Cc1nn(C)c2c1c(-c1ccccc1)cc(=O)n2Cc1ccc(Br)cc1F 8.83%
Cc1ccc(OCC(=O)N(Cc2ccc(N(C)C)cc2)CC2CCCO2)cc1C (stereo not drawn) -7.91%
COc1ccc(-c2cc(C(F)(F)F)nc(SCC(=O)N3CCCCC3)n2)cc1 -7.55%
CCCC(=O)c1cc2c(cc1NC(=O)c1ccccc1F)OCCO2 -13.1%
CCCCOc1ccc(NC(=O)c2cc3c(n(-c4ccc(Cl)cc4)c2=O)CCCC3=O)cc1 1.64%
Cc1ccc(CNC(=O)CCCn2c(=O)c3ccccc3n(Cc3ccccc3Cl)c2=O)cc1 -6.46%
COc1cccc(CNC(=O)C2CCCN(S(=O)(=O)c3ccc4c(ccn4C)c3)C2)c1OC (stereo not drawn) -20.1%
O=C(Cn1c(=O)n(CCCS(=O)(=O)C2CCCCC2)c(=O)c2ccccc21)Nc1ccccc1F -5.52%
Cc1nn2c3c(cnc2c1-c1ccc(F)cc1)C(=O)CC(c1ccccc1)C3 (stereo not drawn) -6.06%
CC(=O)Nc1ccc(NC(=O)CC(C)n2ccc(C)n2)cc1 (stereo not drawn) -3.3%
CCCN1CCN(CCNC(=O)Nc2cc(Cl)c(OC)cc2OC)CC1 -14.9%
Cc1cc(C)c(-c2csc(-c3cc4ccccc4oc3=O)n2)cc1C -9.43% [at 11.5 µM]
O=C(Nc1nnc(N2CCCC2)s1)Nc1cc(F)ccc1F 10.3%
O=C(NCCc1ccccc1)c1c2c(nc3ccccc13)C(=O)N(C1CCCCC1)C2 18%
Cc1oc(-c2cccc(Cl)c2)nc1CN1CCC(C(=O)NCc2ccc(F)cc2)CC1 4.92%
C=CCOc1cc(Cl)ccc1C(=O)NCCN(CC)CC -5.76%
O=C(COCCOCCOCC(=O)Nc1c(I)cc(I)c(C(=O)O)c1I)Nc1c(I)cc(I)c(C(=O)O)c1I -1.62%
COc1cccc(NC(=O)Cc2ccc(NC(=O)N3CCCCc4ccccc43)cc2)c1 -19.2%
CCCN1C(=O)c2[nH]nc(-c3ccc(F)cc3)c2C1c1ccc(O)c(OCC)c1 (stereo not drawn) -2.07%
CCOC(=O)c1c(-c2ccccc2)oc2ccc(OCc3ccc(C)cc3)cc12 -9.36%
